# Assay results as given in PubChem BioAssay (Tox21).
# Where “and” joins values, the source holds several entries; their conditions need not be identical. Equal entries are not always repeated. The shares of active, inactive and inconclusive entries below differ from those in the screen. For some of these results: Potencies of inconclusive entries are doubtful fits and often do not repeat. More than one record can exist for a structure, and the calls need not agree. Calls of active or inactive are those of the source. Unless noted, the call rests on the fitted dose curve; in most records, active means well fitted curve in the direction sought with a large enough effect in the repeat runs; inconclusive means weak or mixed curves; inactive means no such curve, though single readings can be large; an effect the other way counts as inactive or inconclusive.
# Assays:
# [1] = qHTS RealTime-Glo MT Cell Viability Assay in HEK293 cells - 24 hour (AID 1224886); further: nearly all actives have a fitted effect of over 50% in size; further: potency means the concentration at half of the fitted maximal effect
# Summary of the method: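 Luminescence generated by NanoLuc from substrate produced by living HEK293 cells served as the viability signal. Each value reflects the reading at its stated time point during continuous 40 h compound exposure at 37 C.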
# [2] = qHTS RealTime-Glo MT Cell Viability Assay in HepG2 cells - 0 hour (AID 1224889); further: potency means the concentration at half of the fitted maximal effect; nearly all actives have a fitted effect of over 50% in size
# Summary of the method: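 Tox21 10K library screened in qHTS format on HepG2 cells carrying RealTime-Glo reagents. Compounds were added after a 5 h preincubation, and the luminescent signal from continuous culture was measured repeatedly during 40 h treatment.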
# [3] = qHTS assay to identify small molecule antagonists of the androgen receptor (AR) signaling pathway using the MDA cell line in the presence of 0.5 nM R1881 - cell viability counter screen (AID 1259242); further: potency means the concentration at half of the fitted maximal effect; nearly all actives have a fitted effect of over 45% in size
# Summary of the method: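 Cells seeded at 3,000/well and allowed 5 hr at 37C, 0% CO2 before compound transfer and R1881 (0.5 nM final) addition; 16 hr later, live-cell protease fluorescence indicated cytotoxicity.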
# [4] = qHTS assay to identify small molecule HDAC inhibitors - cell viability counter screen (AID 1259365); further: nearly all actives have a fitted effect of over 50% in size; further: potency means the concentration at half of the fitted maximal effect
# Summary of the method: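 CellTiter-Glo luminescence (30 min, room temperature) reported viability after a 2 h compound exposure at 37 C. Cells: wild-type HCT-116, 1,500 per well, seeded the night before.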
# [5] = qHTS assay to identify small molecule agonists of the sonic hedgehog signaling (Shh) pathway - cell viability counter screen (AID 1259366); further: nearly all actives have a fitted effect of over 50% in size; further: potency means the concentration at half of the fitted maximal effect
# Summary of the method: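 Cytotoxicity counter screen: CellTiter-Fluor reagent added after 23 h compound exposure, then 1 h at 37C and fluorescence read. Cells were 3T3 Gli1-Luc, seeded 2,000 per well and dosed 4 h post-plating.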
# [6] = qHTS assay to identify small molecule antagonists of the sonic hedgehog signaling (Shh) pathway - cell viability counter screen (AID 1259367); further: potency means the concentration at half of the fitted maximal effect; nearly all actives have a fitted effect of over 55% in size
# Summary of the method: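 Viability was read by CellTiter-Fluor fluorescence in the same wells, reagent added 23 hr into compound treatment and incubated 1 hr at 37C. The 3T3 Gli1-Luc reporter cells (2,000/well) received conditioned medium after compound and ran 24 hr.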
# [7] = qHTS assay to identify small molecule antagonists of the sonic hedgehog signaling (Shh) pathway (AID 1259369; calls by dose curve; further: potency means the concentration at half of the fitted maximal effect; nearly all actives have a fitted effect of over 45% in size)
# Summary of the method: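 Read-out is luminescence from a firefly luciferase gene controlled by the Gli1 response element, in 3T3Gli1-Luc cells pre-incubated 4hr then exposed to compounds and conditioned medium for 24hr.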
# [8] = qHTS RealTime-Glo MT Cell Viability Assay in HEK293 cells - 8 hour (AID 1224887); further: nearly all actives have a fitted effect of over 50% in size; further: potency means the concentration at half of the fitted maximal effect
# Summary of the method: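 Kinetic, non-lysing viability readout. Seed HEK293 (600/well) with reagent, incubate 5 h at 37 C/5% CO2, pin 23 nL compound in DMSO, incubate at 37 C, read luminescence at 0, 8, 16, 24, 32, 40 h.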
# [9] = qHTS assay to identify small molecule antagonists of the estrogen receptor alpha (ER-alpha) signaling pathway using the BG1 cell line in the presence of 0.1 nM 17-beta-estradiol - cell viability counter screen (AID 1259241); further: potency means the concentration at half of the fitted maximal effect; nearly all actives have a fitted effect of over 40% in size
# Summary of the method: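 Cytotoxicity counter-screen: live-cell protease activity measured by fluorescence (30 min reagent step) in the same wells. Cells were VM7Luc4E2 with endogenous ER-alpha and ERE-driven luciferase, treated 22 hr at 37C alongside 0.1 nM 17beta-estradiol final.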
# [10] = target: Estrogen receptor (Homo sapiens) (UniProt P03372); assay: qHTS assay to identify small molecule antagonists of the estrogen receptor alpha (ER-alpha) signaling pathway using the BG1 cell line in the presence of 0.1 nM 17-beta-estradiol (AID 1259244)
# Summary of the method: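 Luciferase signal from VM7Luc4E2 ERE-reporter cells, co-dosed with test compound and 0.1 nM final 17beta-estradiol for 22 h, read with ONE-Glo.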
# [11] = qHTS assay to identify small molecule phospholipidosis (PLD) inducers (AID 1259344; active means well fitted curve in the direction sought with a large enough effect; inconclusive means small, poorly fitted or top-dose-only effect, or another doubt; inactive means no such curve, though single readings can be large; an effect the other way counts as inactive or inconclusive; further: potency means the concentration at half of the fitted maximal effect)
# Summary of the method: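 Phospholipid accumulation was scored by imaging: fixed, Hoechst-counterstained HepG2 cells stained with LipidTOX Red after 24 h compound exposure at 37 C. Read-outs were pit count and pit intensity per well or per cell, with amiodarone and DMSO controls.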
# [12] = qHTS assay to identify small molecule HDAC inhibitors (AID 1259364);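 further: wild-type HCT-116 cells with endogenous class I/II HDAC activity; top concentration of the series differs between compounds; nearly all actives have a fitted effect of over 45% in size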
# Summary of the method: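 HCT-116 wt cells, 1,500/well, overnight attach. Compounds (DMSO) 2 h, 37 °C. HDAC-Glo I/II, 30 min RT. Luminescence.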
# [13] = target: Estrogen receptor beta (Homo sapiens) (UniProt Q92731); assay: qHTS assay to identify small molecule agonists of the estrogen receptor beta (ER-beta) signaling pathway (AID 1259377; active means well fitted activation curve with a large enough effect in the signal ratio in the repeat runs, not every such curve was filed as active; inconclusive means weak or mixed curves, or effect the other way; the % refers to the signal ratio; further: potency means the concentration at half of the fitted maximal effect); settings: ER-beta-UAS-bla HEK293T, beta-lactamase FRET ratio, 16 h; series mostly up to 92.4 µM
# Summary of the method: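 Ratiometric beta-lactamase FRET read-out came after 2 h substrate loading at room temperature. It followed 16 h compound treatment at 37C of GripTite HEK293T cells carrying a UAS-bla reporter, plated in 2% charcoal-stripped FBS medium.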
# [14] = A CellTox Green Cytotoxicity Assay to monitor cytotoxicity in HepG2 cells - 8 hour (AID 1224890); further: nearly all actives have a fitted effect of over 45% in size
# Summary of the method: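 Cytotoxicity was tracked as dead-cell DNA fluorescence in HepG2 cells treated with test compounds at 37 C; each time-point value comes from one kinetic series spanning 0, 8, 16, 24, 32 and 40 h.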
# [15] = target: Androgen receptor (Homo sapiens) (UniProt P10275); assay: qHTS assay to identify small molecule antagonists of the androgen receptor (AR) signaling pathway using the MDA cell line in the presence of 0.5 nM R1881 (AID 1259243)
# Summary of the method: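 Luminescence from an AR/GR-responsive MMTV-luciferase construct in MDA-kb2 breast carcinoma cells, read 30 min after ONE-Glo, following 16 hr co-treatment with compounds and 0.5 nM R1881.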
# [16] = A CellTox Green Cytotoxicity Assay to monitor cytotoxicity in HEK293 cells - 16 hour (AID 1224888); further: potency means the concentration at half of the fitted maximal effect; nearly all actives have a fitted effect of over 35% in size
# Summary of the method: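 Real-time, in one plate: 600 HEK293 cells/well with dead-cell DNA dye, pinned compound after 5 h, 37 C incubation over 40 h; viable cells give no appreciable fluorescence.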
# Tags describe the fitted curve by direction and shape or compound fluorescence and quenching.
# UniProt Q92731, sequence (Q92731 whole entry, looked up): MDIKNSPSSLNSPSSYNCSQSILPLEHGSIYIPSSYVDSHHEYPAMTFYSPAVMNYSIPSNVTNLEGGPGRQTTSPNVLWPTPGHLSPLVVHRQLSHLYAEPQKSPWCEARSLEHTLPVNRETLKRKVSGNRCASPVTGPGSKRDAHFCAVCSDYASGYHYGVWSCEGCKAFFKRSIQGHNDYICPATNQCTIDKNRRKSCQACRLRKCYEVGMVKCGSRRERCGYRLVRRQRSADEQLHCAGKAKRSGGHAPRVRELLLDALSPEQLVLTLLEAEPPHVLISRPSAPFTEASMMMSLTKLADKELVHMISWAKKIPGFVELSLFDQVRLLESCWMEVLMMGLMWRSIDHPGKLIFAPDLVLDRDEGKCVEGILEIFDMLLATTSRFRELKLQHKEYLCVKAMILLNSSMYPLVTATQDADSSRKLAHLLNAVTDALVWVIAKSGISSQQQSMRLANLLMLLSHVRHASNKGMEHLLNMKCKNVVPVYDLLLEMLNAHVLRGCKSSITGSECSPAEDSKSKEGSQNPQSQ
# UniProt P03372, sequence (P03372 whole entry, looked up): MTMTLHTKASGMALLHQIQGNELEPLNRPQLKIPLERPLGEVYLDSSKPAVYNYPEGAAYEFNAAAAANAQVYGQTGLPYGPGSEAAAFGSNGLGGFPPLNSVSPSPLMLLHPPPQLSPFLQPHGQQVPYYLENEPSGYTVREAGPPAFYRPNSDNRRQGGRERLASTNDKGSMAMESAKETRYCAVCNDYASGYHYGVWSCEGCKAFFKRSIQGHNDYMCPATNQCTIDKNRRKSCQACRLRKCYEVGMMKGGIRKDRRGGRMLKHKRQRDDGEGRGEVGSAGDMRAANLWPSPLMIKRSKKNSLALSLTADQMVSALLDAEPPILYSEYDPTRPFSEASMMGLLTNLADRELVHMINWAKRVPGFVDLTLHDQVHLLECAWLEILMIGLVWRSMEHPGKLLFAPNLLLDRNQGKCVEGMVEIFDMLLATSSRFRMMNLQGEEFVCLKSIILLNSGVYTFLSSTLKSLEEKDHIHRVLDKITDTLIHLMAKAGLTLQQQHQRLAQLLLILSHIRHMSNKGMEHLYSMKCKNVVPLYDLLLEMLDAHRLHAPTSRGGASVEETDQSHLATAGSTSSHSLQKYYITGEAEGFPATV
# UniProt P10275, sequence (P10275 whole entry, looked up): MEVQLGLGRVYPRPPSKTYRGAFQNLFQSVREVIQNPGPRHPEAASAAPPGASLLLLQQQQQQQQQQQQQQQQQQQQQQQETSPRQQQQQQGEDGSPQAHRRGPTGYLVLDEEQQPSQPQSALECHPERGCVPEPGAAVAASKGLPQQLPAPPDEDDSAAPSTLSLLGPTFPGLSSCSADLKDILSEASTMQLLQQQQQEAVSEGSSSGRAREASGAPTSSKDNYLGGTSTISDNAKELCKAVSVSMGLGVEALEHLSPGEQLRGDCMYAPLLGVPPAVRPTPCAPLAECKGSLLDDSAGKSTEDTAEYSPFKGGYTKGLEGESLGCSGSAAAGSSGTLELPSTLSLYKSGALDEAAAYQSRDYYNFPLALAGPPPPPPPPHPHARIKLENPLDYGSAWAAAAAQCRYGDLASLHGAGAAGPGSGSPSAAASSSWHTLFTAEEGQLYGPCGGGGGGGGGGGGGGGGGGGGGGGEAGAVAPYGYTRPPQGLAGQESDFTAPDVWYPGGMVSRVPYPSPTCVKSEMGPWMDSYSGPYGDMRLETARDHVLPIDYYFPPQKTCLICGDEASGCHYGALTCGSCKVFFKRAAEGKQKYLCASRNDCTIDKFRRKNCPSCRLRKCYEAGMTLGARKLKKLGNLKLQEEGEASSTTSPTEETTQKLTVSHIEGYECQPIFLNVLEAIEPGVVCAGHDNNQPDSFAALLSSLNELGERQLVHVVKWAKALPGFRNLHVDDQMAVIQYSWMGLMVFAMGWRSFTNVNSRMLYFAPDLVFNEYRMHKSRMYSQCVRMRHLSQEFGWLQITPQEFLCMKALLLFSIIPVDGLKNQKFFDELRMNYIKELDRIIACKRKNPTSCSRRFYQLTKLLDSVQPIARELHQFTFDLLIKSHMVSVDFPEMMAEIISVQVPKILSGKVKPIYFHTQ
structure (smiles),measurement,setting,value
Nc1ccc(N)c([N+](=O)[O-])c1,Potency,[1],"inconclusive: 34.7 µM [rising, partial curve, poor fit]"
same,Potency,[2],"inconclusive: 43.6 µM [cytotoxic, partial curve, poor fit]"
same,Potency,[3],inconclusive: 48.6 µM [cytotoxic]
same,Potency,[4],"inconclusive: 48.6 µM [cytotoxic, partial curve, poor fit]"
same,Potency,[5],active: 27.3 µM
same,Potency,[6],active: 21.7 µM
same,Potency,[7],active: 8.63 µM
CC(=O)OCCN(CCOC(C)=O)c1ccc(N=Nc2ccc([N+](=O)[O-])cc2C#N)cc1,Potency,[1],"inconclusive: 21.9 µM [cytotoxic, single point]"
same,Potency,[8],"inconclusive: 21.9 µM [cytotoxic, single point]"
same,Potency,[9],"inconclusive: 68.6 µM [cytotoxic, single point]"
same,Potency,[3],active: 54.5 µM
same,Potency,[4],active: 24.3 µM
CCCC(=O)O[C@]1(C(=O)CC)CC[C@H]2[C@@H]3CCC4=CC(=O)CC[C@]4(C)[C@H]3[C@@H](O)C[C@@]21C,Potency,[1],"inconclusive: 23.9 µM [cytotoxic, partial curve, poor fit]"
same,Potency,[2],active: 1.69 µM
same,Potency,[7],"inconclusive: 5.96 µM [inhibitor, full curve]"
C#C[C@]1(OC(C)=O)CC[C@H]2[C@@H]3CCC4=C[C@@H](OC(C)=O)CC[C@@H]4[C@H]3CC[C@@]21C,Potency,[1],active: 21.3 µM
same,Potency,[8],"inconclusive: 26.8 µM [cytotoxic, single point]"
same,Potency,[10],"inconclusive: 23.7 µM [inhibitor, partial curve, poor fit]"
same,Potency,[11],"inconclusive: 12.6 µM [activator, single point] and active: 10 µM"
same,Potency,[12],inactive
same,Potency,[7],"inconclusive: 6.68 µM [inhibitor, full curve, poor fit]"
same,Potency,[13],active: 0.335 µM
CCC(=O)Oc1ccc(/C(CC)=C(\CC)c2ccc(OC(=O)CC)cc2)cc1,Potency,[1],active: 21.9 µM
same,Potency,[8],"inconclusive: 24.5 µM [cytotoxic, partial curve]"
same,Potency,[10],"inconclusive: 48.6 µM [inhibitor, partial curve]"
same,Potency,[6],"inconclusive: 48.6 µM [cytotoxic, partial curve]"
same,Potency,[7],active: 24.3 µM
same,Potency,[13],active: 0.0017 µM
CC(COc1ccc(C(C)(C)C)cc1)OS(=O)OCCCl (stereo unspecified),Potency,[1],"inconclusive: 0.348 µM [cytotoxic, full curve, poor fit]"
same,Potency,[14],inactive
same,Potency,[5],inactive
same,Potency,[7],active: 1.94 µM
CNCc1ccc(NC(=O)c2c[nH]c3c2C(=O)CCC3)cc1,Potency,[1],"inconclusive: 43.6 µM [cytotoxic, single point]"
same,Potency,[8],"inconclusive: 30.9 µM [cytotoxic, partial curve]"
same,Potency,[7],"inconclusive: 27.3 µM [inhibitor, full curve]"
Nc1ccc2c(O)cc(S(=O)(=O)O)cc2c1,Potency,[1],"inconclusive: 6.17 µM [cytotoxic, full curve] and inconclusive: 9.77 µM [cytotoxic, partial curve]"
same,Potency,[2],"inconclusive: 61.6 µM [cytotoxic, partial curve, poor fit]"
same,Potency,[9],"inconclusive: 34.4 µM [cytotoxic, partial curve]"
same,Potency,[3],"inconclusive: 24.4 µM [cytotoxic, partial curve, poor fit] and inconclusive: 61.1 µM [cytotoxic, partial curve, poor fit]"
same,Potency,[5],"inconclusive: 13.7 µM [cytotoxic, full curve] and inconclusive: 13.7 µM [cytotoxic, partial curve]"
same,Potency,[7],"inconclusive: 0.244 µM [inhibitor, single point]"
same,Potency,[13],"inconclusive: 15.4 µM [falling, single point]"
O=C1CCCCCCCCCCCCCCO1,Potency,[1],inactive
same,Potency,[8],inactive
same,Potency,[4],inactive
Cc1c(C(=O)NN2CCCCC2)nn(-c2ccc(Cl)cc2Cl)c1-c1ccc(Cl)cc1,Potency,[1],"inconclusive: 10.7 µM [cytotoxic, partial curve]"
same,Potency,[8],"inconclusive: 9.52 µM [cytotoxic, partial curve]"
same,Potency,[15],active: 26.6 µM
same,Potency,[11],"inconclusive: 10 µM [activator, partial curve, poor fit]"
COc1ccc2nc(N)sc2c1,Potency,[1],inactive and active: 3.09 µM
same,Potency,[8],"inconclusive: 11 µM [cytotoxic, full curve]"
same,Potency,[13],inactive
COc1ccc(-c2cc(C(F)F)nn2-c2ccc(S(N)(=O)=O)cc2)cc1F,Potency,[1],"inconclusive: 26.8 µM [cytotoxic, partial curve, poor fit]"
same,Potency,[14],inactive
same,Potency,[7],"inconclusive: 2.37 µM [inhibitor, full curve]"
CCCCC/C=C/CC1CC(=O)OC1=O (stereo unspecified),Potency,[1],inactive
same,Potency,[16],"inconclusive: 54.9 µM [activator, partial curve, poor fit]"
same,Potency,[5],inactive
Cc1ccc2c(c1[N+](=O)[O-])C(=O)c1ccccc1C2=O,Potency,[1],"inconclusive: 0.678 µM [cytotoxic, full curve]"
same,Potency,[8],inactive
same,Potency,[13],"inconclusive: 3.37 µM [rising, full curve]"
